Data reported in PubChem BioAssay AID1468 (National Center for Advancing Translational Sciences (NCATS), 2008).
Several values for one entry are separate records, joined by “and”; a condition that tells them apart may be missing. Equal entries are not always repeated. In all, about 280,000 compounds went through this assay and about 1,100 (0.39%) were called active. The shares of active, inactive and inconclusive entries below differ from those in the screen. Calls come from the whole dose curve; as a rule, active = well fitted inhibition curve with a large enough effect; inconclusive = small, poorly fitted or top-dose-only effect, or effect the other way; inactive = flat fitted curve, though single readings scatter. Where the call is inconclusive, the potency comes from a doubtful curve fit.
Note: nearly all actives have a fitted effect of over 55% in size.
Potency is the fitted concentration of half-maximal effect; tags give direction and shape of the fitted curve.

Each compound was assayed against Microtubule-associated protein tau (Homo sapiens) (UniProt P10636) (assay: qHTS for Inhibitors of Tau Fibril Formation, Fluorescence Polarization). Conditions: K18 P301L tau heparin fibrillization, Alexa594 FP, 6 h; series mostly up to 57.7 µM.
Sequence of UniProt P10636 (P10636 whole entry, looked up): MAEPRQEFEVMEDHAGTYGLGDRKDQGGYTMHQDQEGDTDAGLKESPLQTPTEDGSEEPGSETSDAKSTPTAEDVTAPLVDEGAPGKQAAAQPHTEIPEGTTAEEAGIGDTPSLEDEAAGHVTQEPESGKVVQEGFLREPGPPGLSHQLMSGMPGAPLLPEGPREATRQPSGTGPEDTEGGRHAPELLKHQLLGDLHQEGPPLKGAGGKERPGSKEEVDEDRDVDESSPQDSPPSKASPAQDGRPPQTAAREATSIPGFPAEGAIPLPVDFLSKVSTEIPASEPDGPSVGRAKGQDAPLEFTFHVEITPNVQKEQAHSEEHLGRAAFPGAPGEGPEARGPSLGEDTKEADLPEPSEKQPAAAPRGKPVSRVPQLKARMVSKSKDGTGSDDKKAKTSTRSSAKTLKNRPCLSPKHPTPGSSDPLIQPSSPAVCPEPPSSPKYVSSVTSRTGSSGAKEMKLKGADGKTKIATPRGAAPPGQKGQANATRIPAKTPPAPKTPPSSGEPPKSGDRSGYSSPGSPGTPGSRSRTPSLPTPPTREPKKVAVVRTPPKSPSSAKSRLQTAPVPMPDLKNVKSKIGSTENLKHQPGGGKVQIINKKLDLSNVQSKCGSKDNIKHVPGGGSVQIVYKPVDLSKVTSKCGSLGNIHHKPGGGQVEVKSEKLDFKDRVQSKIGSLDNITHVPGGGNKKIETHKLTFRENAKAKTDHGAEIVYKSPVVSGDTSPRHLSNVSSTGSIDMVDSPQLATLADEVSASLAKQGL
Summary of the method: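 Read-out: fluorescence polarization of Alexa 594-labeled tau (0.24 uM), 555 nm excitation, 632 nm emission. Mixtures held 15 uM unlabeled K18 P301L, compound and 20 uM heparin, pH 7 acetate buffer, incubated 6 hr at 37 C.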
O=S(=O)(c1ccccc1)c1nnn2c1nc(Nc1ccccc1)c1cc(Cl)ccc12 was tested, and the Potency was inconclusive: 12.6 µM [inhibitor, partial curve]. For NC1=NC(=O)/C(=C/c2ccccc2OS(=O)(=O)c2ccccc2)S1, the Potency was inconclusive: 44.7 µM [inhibitor, single point]. COc1ccc(S(=O)(=O)N2c3cc(Cl)ccc3Oc3nc4ccccc4nc32)cc1 was tested, and the Potency was inconclusive: 20 µM [inhibitor, partial curve]. For CCOc1ccc(N(C)C(=O)C2CCN(S(=O)(=O)c3ccc4c(c3)CCCN4C(C)=O)CC2)cc1, the Potency was inconclusive: 8.91 µM [inhibitor, single point]. COc1ccccc1NS(=O)(=O)c1cc(NC(=O)CNC(=O)c2ccc(C)s2)ccc1Cl was tested, and the Potency was inconclusive: 25.1 µM [inhibitor, partial curve]. With C/C(CC1CC(C)(C)OC1=O)=N\NC(N)=S (stereo not drawn) the Potency was “inactive”. Cc1cccc(C)c1NC(=S)Nc1ccc(Cl)c(Cl)c1 was tested, and the Potency was inconclusive: 35.5 µM [inhibitor, single point]. In the case of Cc1ccc(-n2nnnc2SCC(=O)Nc2ncc(Cc3ccccc3Cl)s2)cc1, the Potency was inconclusive: 31.6 µM [inhibitor, single point]. O=C(CSc1nnc(-c2ccc(F)cc2)c2ccccc12)Nc1ccccc1 was tested, and the Potency was inconclusive: 5.62 µM [inhibitor, single point]. For COc1ccc(C(=O)NC(=S)SCC(=O)O)cc1, the Potency was inconclusive: 25.1 µM [inhibitor, single point]. With O=[N+]([O-])c1ccc2nc(-c3ccccc3[N+](=O)[O-])[nH]c2c1 the Potency was “inactive”. In the case of Cc1c(Cl)cccc1Nc1nc(N)nc(CSc2nc3ccccc3s2)n1, the Potency was inconclusive: 15.8 µM [inhibitor, partial curve] and inconclusive: 14.1 µM [inhibitor, partial curve]. COC(=O)/C=C1\S/C(=N\N=C\CC(=O)OC)NC1=O was tested, and the Potency was “inactive”. For Cc1ccc2oc(C(=O)Nc3ccc(S(=O)(=O)Nc4onc(C)c4C)cc3)cc(=O)c2c1, the Potency was inconclusive: 39.8 µM [activator, single point]. In the case of CCc1ccc(CNc2ccc(O)cc2)cc1, the Potency was active: 7.08 µM. In the case of O=C1c2[nH]nc(-c3ccccc3)c2C(c2ccccc2)N1c1cccc(C(F)(F)F)c1 (stereo not drawn), the Potency was inconclusive: 22.4 µM [inhibitor, single point]. With CCC(C(=O)OCC(=O)Nc1ccc(C(=O)Nc2ccc(OC)cc2)cc1)c1ccccc1 (stereo not drawn) the Potency was inconclusive: 39.8 µM [inhibitor, single point]. For O=C1SC(Nc2ccc(Cl)cc2)C(=O)N1Cc1ccccc1 (stereo not drawn), the Potency was inconclusive: 39.8 µM [inhibitor, single point]. In the case of C/C(=N\NC(=O)c1cccc(N/N=C(\C)c2cc(O)ccc2O)c1)c1cc(O)ccc1O, the Potency was inconclusive: 22.4 µM [activator, single point]. For Cc1onc(-c2c(F)cccc2Cl)c1C(=O)Nc1c(C)n(C)n(-c2ccccc2)c1=O, the Potency was “inactive”. In the case of COc1cccc(C(=O)NCC(=O)OCc2cc(=O)n3nc(C)sc3n2)c1, the Potency was inconclusive: 25.1 µM [inhibitor, single point]. COc1cc2cc(CN(CCc3cccc(C)c3)C(=S)NCCCN(C)C)c(=O)[nH]c2cc1OC was tested, and the Potency was “inactive”. For CCOCCCNc1nc2c(C)cccn2c(=O)c1/C=C1\SC(=S)N(C(C)CC)C1=O (stereo not drawn), the Potency was active: 22.4 µM. With O=C(Cn1c(=O)oc2cc(S(=O)(=O)NCc3ccccc3)ccc21)Nc1ccc(F)c(Cl)c1 the Potency was inconclusive: 31.6 µM [inhibitor, single point]. With CC1=Nc2ccccc2/C1=C\c1sc(Nc2ccc(C)cc2)nc1O the Potency was inconclusive: 1.78 µM [activator, partial curve]. In the case of Cc1ccccc1-c1nnc(NC(=O)CSc2nc3ccccc3s2)s1, the Potency was inconclusive: 3.16 µM [inhibitor, full curve]. With COc1cccc(-c2ccc3c(N)c(C(=O)c4ccc(Br)cc4)sc3n2)c1 the Potency was inconclusive: 39.8 µM [inhibitor, single point]. In the case of C=CCn1c(SC(C)C#N)nc2sc(CC)cc2c1=O (stereo not drawn), the Potency was “inactive”. With CCN1CCN(c2ccc(NC(=O)c3cccc(OCc4ccccc4)c3)cc2)CC1 the Potency was “inactive”. For COc1cccc(CNC(=O)Cc2csc3ccccc23)c1OC, the Potency was “inactive”. With O=[N+]([O-])c1cc(Cl)ccc1N1CCN(c2ccccc2O)CC1 the Potency was “inactive”. With COc1ccc(N=Cc2c(O)[nH]c3ccccc23)cc1 the Potency was “inactive”. COc1ccc(Cl)cc1NC(=O)CCS(=O)(=O)c1cccc2nonc12 was tested, and the Potency was “inactive”. For COc1ccccc1OCC(=O)NNC(=S)NC(=O)c1ccco1, the Potency was “inactive”. Cc1ccccc1-n1nc(-c2cccnc2)cc1C(=O)NN was tested, and the Potency was inconclusive: 3.98 µM [inhibitor, single point]. With COc1ccc(C(=O)Nc2nc3c(s2)CCCC3)cc1S(=O)(=O)N1CCCc2ccccc21 the Potency was inconclusive: 22.4 µM [inhibitor, single point]. For Cc1nc2c(-c3ccccc3)c(C)[nH]n2c(=O)c1Cc1ccccc1, the Potency was “inactive”. With Cn1nc(CC(=O)N2CCN(c3ccccc3)CC2)c2ccccc2c1=O the Potency was inconclusive: 0.0794 µM [activator, full curve, poor fit]. CCCSc1nnc(Sc2nnnn2-c2ccccc2)s1 was tested, and the Potency was inconclusive: 3.55 µM [inhibitor, single point]. In the case of COc1ccc(C(=O)COC(=O)/C=C/c2ccc(S(=O)(=O)Nc3cccc(S(N)(=O)=O)c3)cc2)cc1, the Potency was inconclusive: 39.8 µM [inhibitor, single point]. In the case of COc1ccc(C(=O)Nc2ccc(OCC(F)(F)C(F)F)c(C(F)(F)F)c2)cc1OC, the Potency was active: 22.4 µM. For COc1ccc(CN(C(=O)Nc2cccc(Cl)c2)c2ccccn2)cc1OC, the Potency was inconclusive: 10 µM [inhibitor, partial curve]. In the case of COc1cccc(CSc2nc3n(n2)C(c2cccc(F)c2)C(C(=O)Nc2ccccc2C)=C(C)N3)c1 (stereo not drawn), the Potency was inconclusive: 20 µM [inhibitor, partial curve, poor fit].
